# Reference: the supplement of paper PMC3334620
# The full ranking holds about 33,000 sequences; the median of “E-score (-0.5 to 0.5)” is about -0.011, and the highest 2% start at about 0.28. This is one part of the list.
# Biological target: T1, Gcr1 (UniProt P07261)
# T1 sequence: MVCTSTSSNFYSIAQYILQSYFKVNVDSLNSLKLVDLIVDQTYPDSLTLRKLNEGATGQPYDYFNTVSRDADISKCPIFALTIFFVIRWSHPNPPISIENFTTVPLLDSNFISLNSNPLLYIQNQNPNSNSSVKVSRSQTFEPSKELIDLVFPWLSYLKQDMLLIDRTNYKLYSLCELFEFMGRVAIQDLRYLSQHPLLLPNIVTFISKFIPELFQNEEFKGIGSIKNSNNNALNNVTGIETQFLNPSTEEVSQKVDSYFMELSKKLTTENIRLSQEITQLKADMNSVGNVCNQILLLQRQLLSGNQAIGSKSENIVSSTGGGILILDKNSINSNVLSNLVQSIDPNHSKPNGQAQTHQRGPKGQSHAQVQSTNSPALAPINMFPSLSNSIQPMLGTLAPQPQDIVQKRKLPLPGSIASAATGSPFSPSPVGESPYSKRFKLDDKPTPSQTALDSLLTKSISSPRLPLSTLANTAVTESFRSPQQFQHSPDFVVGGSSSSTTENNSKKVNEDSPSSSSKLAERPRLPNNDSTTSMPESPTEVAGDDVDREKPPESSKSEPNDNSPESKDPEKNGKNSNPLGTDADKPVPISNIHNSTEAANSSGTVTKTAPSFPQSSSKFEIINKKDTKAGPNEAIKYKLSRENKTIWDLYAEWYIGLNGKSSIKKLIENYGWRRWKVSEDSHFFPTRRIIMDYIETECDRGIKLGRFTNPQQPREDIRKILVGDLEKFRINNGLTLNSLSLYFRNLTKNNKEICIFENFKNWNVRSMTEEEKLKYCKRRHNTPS
# Assay: PBM E-score (8-mer binding enrichment) (E-score (-0.5 to 0.5)); higher = stronger / more preferred TF binding; most listed sequences are background and not binding sites
# Conditions: protein concentration: 100 nM; construct: GST-full length
# Outline: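 Each ungapped eight-base word and its reverse complement, pooled, received an E-score from the Universal PBM Analysis Suite. Underlying scans, normalised with masliner, recorded fluorescent anti-GST bound to GST-tagged yeast transcription factors. These were applied at about 100-200 nM to universal all-10-mer Agilent arrays double-stranded by primer extension.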
row,Sequence,PBM E-score
1,CAGTTGTA,0.143
2,CGTCAATC,-0.00892
3,ATATCCCA,0.116
4,ACAGGCCA,-0.156
5,ACTGGTTA,0.0916
6,ACTTTAAC,-0.0262
7,ATTTTGGC,0.116
8,ATCGTGTG,0.0912
9,CTGTTGAA,0.0369
10,AGGTTGGA,-0.118
11,CTTTCCTA,-0.00108
12,CAACGTTC,-0.105
13,ATTTCACC,0.0373
14,GTACAAAA,-0.0647
15,TACCCCGA,-0.036
16,ACTCAAGG,-0.0471
17,CCATGAGC,-0.0516
18,ATGTGTTG,0.102
19,CTCCGAAC,-0.0608
20,CATACAAG,-0.0418
21,CCGGAAAC,0.247
22,GGTCAGAA,-0.139

row,Sequence,PBM E-score
1,GGAATTAA,0.0903
2,GACAAGCC,-0.302
3,CGTCGACA,-0.00153
4,ACCCTGCT,-0.0756
5,ACTCTCAG,0.0147
6,ACATAGTC,-0.105
7,AGAAAGTC,-0.12
8,ATAAATCG,0.027
9,GAGTCGAC,-0.0281
10,AACCCGCA,-0.00106
11,AGGCTTGG,0.0323
12,CTACCAAA,0.181
13,AGAACACT,-0.0753
14,GCGTCATA,0.0508
15,AAGAGTGA,-0.015
16,TCTCCAGA,0.00027
17,CGAGTGAG,-0.284
18,GTCTTCGA,0.0124
19,ACCTGTGC,-0.03
20,GGTTGCTA,0.242
21,ACTCAGCA,-0.146
22,AGGTCAAA,-0.156

row,Sequence,PBM E-score
1,CTCGTCGC,-0.28
2,CTCCCAAC,0.00879
3,ATAGCGAG,-0.134
4,GACAGGGC,-0.168
5,GACTGGGA,-0.076
6,ATAGTCTG,-0.114
7,CGTATCTC,0.0698
8,ATCGTGGG,0.211
9,AGCCCGAT,0.112
10,TGTCCCAA,0.0392
11,TCGTCTAA,0.112
12,CCGGGATC,0.268
13,AGTGCGAG,-0.0808
14,GACTCCTC,0.0371
15,AGAGGCCA,-0.0651
16,AATGCATA,-0.0822
17,AATAAAGA,0.0765
18,ACAATAGG,0.105
19,ACCAGAGG,0.00389
20,AGTTAGCA,0.252
21,ACTATACG,-0.0201
22,ATAGGCAC,0.112

row,Sequence,PBM E-score
1,AGCGGTAA,0.0329
2,ACGAAAAT,0.00347
3,GCAAAGAA,0.00261
4,AAAAATTT,-0.0275
5,ATGAACAC,0.0906
6,GTGAAGGA,-0.0433
7,CAAACCGA,-0.283
8,CACAGCCC,-0.232
9,ACTTCAAG,-0.0164
10,ACTGTCTA,-0.076
11,ACGTATGG,0.0374
12,GAGCGAGC,0.0568
13,AGGGCAAG,-0.102
14,ATACGATG,0.251
15,GCTTCGCA,0.181
16,AACAGGGG,-0.0549
17,AGCTTATC,-0.129
18,CGAGTGCA,-0.147
19,CGGCTGAG,0.0279
20,CTCCCGAG,0.00855
